The source gives many values for each of these; only a part stands here.
Tested on: PRISM panel of 845 cancer cell lines
Experiment: PRISM assay
Format: cell-based, human
Description: The PRISM cell set comprised 845 cell lines representing more than 45 lineages (see Supplementary Table S1 for cell line information), which largely overlapped with the Cancer Cell Line Encyclopedia; https://portals.broadinstitute.org/ccle). Cell lines were grown in RPMI without phenol red and supplemented with 10% or 20% FBS for adherent and suspended lines, respectively. Parental cell lines were stably infected with a unique 24-nucleotide DNA barcode via lentiviral transduction and blasticidin selection. After selection, barcoded cell lines were expanded and subjected to quality control (Mycoplasma contamination test, an SNP test for confirming cell line identity, and barcode ID confirmation). Approved cell lines were then pooled (20–25 cell lines per pool) based on doubling time similarity and frozen in assay-ready vials.
RMC-6236 was added to 384-well plates at 8-point concentration with 3-fold dilutions in triplicate. These assay-ready plates were then seeded with the thawed cell line pools. Adherent cell pools were plated at 1,250 cells per well, whereas suspension and mixed adherent/suspension pools were plated at 2,000 cells per well. Treated cells were incubated for 5 days, and then lysed. Lysate plates were collapsed together prior to barcode amplification and detection.
Each cell line's unique barcode is located in the 3′UTR of the blasticidin-resistance gene and therefore is expressed as mRNA. Total mRNA was captured using magnetic particles that recognize polyA sequences. Captured mRNA was reverse-transcribed into cDNA and then the sequence containing the unique PRISM barcode was amplified using PCR. Finally, Luminex beads that recognize the specific barcode sequences in the cell set were hybridized to the PCR products and detected using a Luminex scanner which reports the signal as a median fluorescent intensity (MFI).
• Each detection well contained 10 control barcodes in increasing abundances as spike-in controls. For each plate, we first create a reference profile by calculating the median of the log2(MFI) values across negative control wells for each of these spiked-in barcodes. • For each well, a monotonic smooth p-spline was fitted to map the spike-in control levels to the reference profile. Next, we transform the log2(MFI) for each cell barcode using the fitted spline to allow well-to-well comparisons by correcting for amplification and detection artifacts. • Next, the separability between negative and positive control treatments was assessed. In particular, we calculated the error rate of the optimum simple threshold classifier between the control samples for each cell line and plate combination. The error rate is a measure of the overlap of the two control sets and was defined as error = (FP + FN)/n, where FP is false positives, FN is false negatives, and n is the total number of controls. A threshold was set between the distributions of positive and negative control log2(MFI) values (with everything below the threshold said to be positive and above said to be negative) such that this value is minimized. Additionally, we also calculated the dynamic range of each cell line. […] Additionally, any cell line that had less than 2 passing replicates was also omitted for the sake of reproducibility. Finally, we computed viability by normalizing with respect to the median negative control for each plate.
For every gene with nonsilent mutations in at least four cell lines, we compared the AUC values between cells with and without those mutations using a t test. This analysis was carried out for (i) the full data set; (ii) excluding cell lines with nonsilent KRAS mutations; and (iii) excluding cell lines that have either KRAS or NRAS nonsilent mutations.

CCn1c(-c2cc(N3CCN(C)CC3)cnc2[C@H](C)OC)c2c3cc(ccc31)-c1csc(n1)C[C@H](NC(=O)[C@H]1C[C@@H]1C)C(=O)N1CCC[C@H](N1)C(=O)OCC(C)(C)C2 [RMC-6236]
RMC-6236: RevMed PRISM: AUC (NCIH1568_LUNG): 0.8053
RMC-6236: RevMed PRISM: AUC (NCIH1573_LUNG, KRAS p.G12A): 0.765
RMC-6236: RevMed PRISM: AUC (NCIH1581_LUNG): 0.8503
RMC-6236: RevMed PRISM: AUC (NCIH1648_LUNG): 0.4542
RMC-6236: RevMed PRISM: AUC (NCIH1650_LUNG): 0.8079
RMC-6236: RevMed PRISM: AUC (NCIH1651_LUNG): 0.9567
RMC-6236: RevMed PRISM: AUC (NCIH1693_LUNG): 0.8065
RMC-6236: RevMed PRISM: AUC (NCIH1694_LUNG): 0.8734
RMC-6236: RevMed PRISM: AUC (NCIH1703_LUNG): 0.7011
RMC-6236: RevMed PRISM: AUC (NCIH1793_LUNG): 0.7652
RMC-6236: RevMed PRISM: AUC (NCIH1876_LUNG): 0.9868
RMC-6236: RevMed PRISM: AUC (NCIH1915_LUNG, HRAS p.Q61L): 0.7986
RMC-6236: RevMed PRISM: AUC (NCIH1975_LUNG): 0.7099
RMC-6236: RevMed PRISM: AUC (NCIH2009_LUNG, KRAS p.G12A): 0.6662
RMC-6236: RevMed PRISM: AUC (NCIH2023_LUNG): 0.6627
RMC-6236: RevMed PRISM: AUC (NCIH2052_PLEURA): 0.7108
RMC-6236: RevMed PRISM: AUC (NCIH2087_LUNG, NRAS p.Q61K): 0.6223
RMC-6236: RevMed PRISM: AUC (NCIH2171_LUNG): 1
RMC-6236: RevMed PRISM: AUC (NCIH2172_LUNG): 0.7803
RMC-6236: RevMed PRISM: AUC (NCIH2228_LUNG): 0.6053
RMC-6236: RevMed PRISM: AUC (NCIH2347_LUNG, KRAS p.L19F, NRAS p.Q61R): 0.517
RMC-6236: RevMed PRISM: AUC (NCIH2444_LUNG, KRAS p.G12V): 0.489
RMC-6236: RevMed PRISM: AUC (NCIH2452_PLEURA): 0.9808
RMC-6236: RevMed PRISM: AUC (NCIN87_STOMACH): 0.9908
RMC-6236: RevMed PRISM: AUC (NIHOVCAR3_OVARY): 0.917
RMC-6236: RevMed PRISM: AUC (NOMO1_HAEMATOPOIETIC_AND_LYMPHOID_TISSUE, KRAS p.G13D): 0.3781
RMC-6236: RevMed PRISM: AUC (NP2_CENTRAL_NERVOUS_SYSTEM): 1
RMC-6236: RevMed PRISM: AUC (NP5_CENTRAL_NERVOUS_SYSTEM): 1
RMC-6236: RevMed PRISM: AUC (NUDHL1_HAEMATOPOIETIC_AND_LYMPHOID_TISSUE, KRAS p.A146T): 0.3893
RMC-6236: RevMed PRISM: AUC (NUGC3_STOMACH): 0.4376
RMC-6236: RevMed PRISM: AUC (OACM51_OESOPHAGUS): 0.6177
RMC-6236: RevMed PRISM: AUC (OAW42_OVARY): 0.7978
RMC-6236: RevMed PRISM: AUC (OCIC4P_OVARY): 0.8046
RMC-6236: RevMed PRISM: AUC (OCILY132_HAEMATOPOIETIC_AND_LYMPHOID_TISSUE): 0.8446
RMC-6236: RevMed PRISM: AUC (OCUG1_BILIARY_TRACT): 0.5217
RMC-6236: RevMed PRISM: AUC (OE19_OESOPHAGUS): 0.6938
RMC-6236: RevMed PRISM: AUC (ONCODG1_OVARY): 0.9179
RMC-6236: RevMed PRISM: AUC (ONDA9_CENTRAL_NERVOUS_SYSTEM): 0.8553
RMC-6236: RevMed PRISM: AUC (OSC20_UPPER_AERODIGESTIVE_TRACT): 0.7713
RMC-6236: RevMed PRISM: AUC (OUMS23_LARGE_INTESTINE): 0.9616
RMC-6236: RevMed PRISM: AUC (OV7_OVARY, KRAS p.G12D): 0.3448
RMC-6236: RevMed PRISM: AUC (OV17R_OVARY): 0.9153
RMC-6236: RevMed PRISM: AUC (OV56_OVARY, KRAS p.G12C): 0.7821
RMC-6236: RevMed PRISM: AUC (OVTOKO_OVARY): 0.8289
RMC-6236: RevMed PRISM: AUC (OZ_BILIARY_TRACT, KRAS p.Q61L): 0.6195
RMC-6236: RevMed PRISM: AUC (P12ICHIKAWA_HAEMATOPOIETIC_AND_LYMPHOID_TISSUE, NRAS p.G12D): 0.2027
RMC-6236: RevMed PRISM: AUC (PACADD119_PANCREAS, KRAS p.G12A): 0.6233
RMC-6236: RevMed PRISM: AUC (PACADD137_PANCREAS): 0.6876
RMC-6236: RevMed PRISM: AUC (PACADD161_PANCREAS, KRAS p.G12V): 0.3243
RMC-6236: RevMed PRISM: AUC (PANC1_PANCREAS, KRAS p.G12D): 0.7528
RMC-6236: RevMed PRISM: AUC (PANC0203_PANCREAS, KRAS p.G12D): 0.3296
RMC-6236: RevMed PRISM: AUC (PANC0327_PANCREAS, KRAS p.G12V): 0.444
RMC-6236: RevMed PRISM: AUC (PANC0403_PANCREAS, KRAS p.G12D): 0.3919
RMC-6236: RevMed PRISM: AUC (PANC0504_PANCREAS, KRAS p.G12D): 0.3709
RMC-6236: RevMed PRISM: AUC (PANC0813_PANCREAS, KRAS p.G12D): 0.5043
RMC-6236: RevMed PRISM: AUC (PANC1005_PANCREAS, KRAS p.G12D): 0.6117
RMC-6236: RevMed PRISM: AUC (PATU8902_PANCREAS, KRAS p.G12V): 0.6019
RMC-6236: RevMed PRISM: AUC (PATU8988S_PANCREAS, KRAS p.G12V): 0.3696
RMC-6236: RevMed PRISM: AUC (PATU8988T_PANCREAS, KRAS p.G12V): 0.6684
RMC-6236: RevMed PRISM: AUC (PC14_LUNG): 0.707
RMC-6236: RevMed PRISM: AUC (PEA1_OVARY): 0.9148
RMC-6236: RevMed PRISM: AUC (PF382_HAEMATOPOIETIC_AND_LYMPHOID_TISSUE, NRAS p.G12S): 0.6853
RMC-6236: RevMed PRISM: AUC (PFSK1_CENTRAL_NERVOUS_SYSTEM): 1
RMC-6236: RevMed PRISM: AUC (PK1_PANCREAS, KRAS p.G12D): 0.5693
RMC-6236: RevMed PRISM: AUC (PK8_PANCREAS, KRAS p.G12R): 0.452
RMC-6236: RevMed PRISM: AUC (PK59_PANCREAS, KRAS p.G12D): 0.5182
RMC-6236: RevMed PRISM: AUC (PLCPRF5_LIVER): 0.8433
RMC-6236: RevMed PRISM: AUC (QGP1_PANCREAS, KRAS p.G12V): 0.5692
RMC-6236: RevMed PRISM: AUC (RBE_BILIARY_TRACT, KRAS p.G12V): 0.3265
RMC-6236: RevMed PRISM: AUC (RCC10RGB_KIDNEY): 0.8192
RMC-6236: RevMed PRISM: AUC (RERFGC1B_STOMACH): 0.7342
RMC-6236: RevMed PRISM: AUC (RERFLCAD1_LUNG, KRAS p.G12A): 0.6942
RMC-6236: RevMed PRISM: AUC (RERFLCAD2_LUNG, KRAS p.G12V): 0.4143
RMC-6236: RevMed PRISM: AUC (RERFLCAI_LUNG): 0.7756
RMC-6236: RevMed PRISM: AUC (RERFLCMS_LUNG): 0.9753
RMC-6236: RevMed PRISM: AUC (RH4_SOFT_TISSUE): 0.9095
RMC-6236: RevMed PRISM: AUC (RH28_SOFT_TISSUE): 1
RMC-6236: RevMed PRISM: AUC (RH36_SOFT_TISSUE, HRAS p.Q61K): 0.538
RMC-6236: RevMed PRISM: AUC (RKO_LARGE_INTESTINE): 0.9213
RMC-6236: RevMed PRISM: AUC (RL952_ENDOMETRIUM, HRAS p.Q61H): 0.4836
RMC-6236: RevMed PRISM: AUC (RMGI_OVARY): 0.7524
RMC-6236: RevMed PRISM: AUC (RMSYM_SOFT_TISSUE): 1
RMC-6236: RevMed PRISM: AUC (RMUGS_OVARY): 0.8116
RMC-6236: RevMed PRISM: AUC (RO82W1_THYROID): 0.7213
RMC-6236: RevMed PRISM: AUC (RPMI7951_SKIN): 0.934
RMC-6236: RevMed PRISM: AUC (RPMI8402_HAEMATOPOIETIC_AND_LYMPHOID_TISSUE, HRAS p.A134S): 0.9235
RMC-6236: RevMed PRISM: AUC (RT4_URINARY_TRACT): 0.6078
RMC-6236: RevMed PRISM: AUC (RT112_URINARY_TRACT): 0.3381
RMC-6236: RevMed PRISM: AUC (RVH421_SKIN): 0.7708
RMC-6236: RevMed PRISM: AUC (S117_THYROID): 0.7471
RMC-6236: RevMed PRISM: AUC (SAOS2_BONE): 1
RMC-6236: RevMed PRISM: AUC (SBC5_LUNG): 0.7492
RMC-6236: RevMed PRISM: AUC (SCABER_URINARY_TRACT): 0.6211

— publication PMC11149917, “Translational and Therapeutic Evaluation of RAS-GTP Inhibition by RMC-6236 in RAS-Driven Cancers” (Cancer Discovery, 2024)
